From the supplement of paper PMC10126150
Values marked as one replicate rest on one cluster of the flow cell; about a third of the high ones do not repeat.
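Note: ATP exposure 15 min at 22 °C before imaging.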

Each sequence was assayed on ATP (assay: switch fluorescence ratio, 500 uM ATP over buffer (Cy3 cluster intensity, sum of 5 cycles each) (fold (ratio)); higher = stronger signal-on switching upon ATP binding; sequences stand for … in TCGTCGGCAGCGTCAGATGTGTATAAGAGACAGTTTTTTTTTTTTTTTTTTTTTTTTT…TC). Conditions: aptamer strand: ATP DNA aptamer (quencher-CACCTGGGGGAGTATTGCGGAGGAAGG + anchor), 100 nM annealed; ATP concentration: 500 uM; one replicate.
How it was run: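 For every switch-domain sequence, the fluorescence ratio is the mean of per-cluster values, each being summed target-cycle Cy3 intensity over summed buffer-cycle Cy3 intensity. Clusters outside 100-1000 RFU were excluded. On a modified Illumina MiSeq flow-cell, the Cy3-labelled switching-strand clusters were annealed to 100 nM quencher-labelled ATP aptamer, imaged in selection buffer and then after 15 min with 500 uM ATP at 22 °C. Five such cycles were run, with NaOH stripping and re-annealing between them.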
AGACCCGAAA showed a switch fluorescence ratio of 1.04. AGACCGAACG gave a switch fluorescence ratio of 1.12. With AGACCGGTC the switch fluorescence ratio was 1.03. Sequence AGACCTCGTT has a switch fluorescence ratio of 1.25. AGACGCACCT was tested, and the switch fluorescence ratio was 1.78. In the case of AGACGCAGTT, the switch fluorescence ratio is reported as 1. AGACGGAATG showed a switch fluorescence ratio of 1.03. Sequence AGACGGAGAG has a switch fluorescence ratio of 1.04. Work on AGACTATAGA yielded a switch fluorescence ratio of 1.04. AGACTATCGA was tested, and the switch fluorescence ratio was 1. AGACTCCAGA showed a switch fluorescence ratio of 1.06. Sequence AGACTGTCAG has a switch fluorescence ratio of 1.02. AGACTTAGAG showed a switch fluorescence ratio of 0.964. AGACTTATGG gave a switch fluorescence ratio of 0.966. AGACTTGGC gave a switch fluorescence ratio of 1.08. Sequence AGACTTGGCT has a switch fluorescence ratio of 1.02. AGAGACTGAT showed a switch fluorescence ratio of 1.01. AGAGAGGGGA showed a switch fluorescence ratio of 0.973. Sequence AGAGAGGTGT has a switch fluorescence ratio of 1.03. In the case of AGAGATAGTC, the switch fluorescence ratio is reported as 1.02. AGAGATCAAA was tested, and the switch fluorescence ratio was 1.01. Sequence AGAGCCTTGG has a switch fluorescence ratio of 1.02. Sequence AGAGCGGAAG has a switch fluorescence ratio of 0.963. With AGAGCTAAAG the switch fluorescence ratio was 0.976. AGAGGAACGT showed a switch fluorescence ratio of 0.997. Sequence AGAGGACGGC has a switch fluorescence ratio of 1.06. Work on AGAGGCCTC yielded a switch fluorescence ratio of 0.955. AGAGGGACTG gave a switch fluorescence ratio of 1.03. For AGAGGGAGT, the switch fluorescence ratio was 0.995. AGAGGGAGTC gave a switch fluorescence ratio of 1.05. For AGAGGGGCA, the switch fluorescence ratio was 0.981. For AGAGGGGCGA, the switch fluorescence ratio was 0.964. AGAGGGTTGA showed a switch fluorescence ratio of 1.03. For AGAGGTACAG, the switch fluorescence ratio was 1.03. In the case of AGAGGTAGCG, the switch fluorescence ratio is reported as 1.04. In the case of AGAGGTAGTT, the switch fluorescence ratio is reported as 1.01. With AGAGGTATTA the switch fluorescence ratio was 0.975. AGAGGTCTAT gave a switch fluorescence ratio of 0.99. Sequence AGAGTAACGT has a switch fluorescence ratio of 0.985. Work on AGAGTAACTT yielded a switch fluorescence ratio of 0.953. With AGAGTAAGCT the switch fluorescence ratio was 1. In the case of AGAGTAGGGC, the switch fluorescence ratio is reported as 1.09. With AGAGTATTGT the switch fluorescence ratio was 0.979. For AGAGTCATAT, the switch fluorescence ratio was 1.01. Sequence AGAGTCATTG has a switch fluorescence ratio of 0.989. With AGAGTGACCG the switch fluorescence ratio was 0.881. AGAGTGGGGA showed a switch fluorescence ratio of 1.04. AGAGTTCGAT showed a switch fluorescence ratio of 1.02. AGAGTTGCGA showed a switch fluorescence ratio of 1.02. Sequence AGATACAGT has a switch fluorescence ratio of 1.04. With AGATACCATG the switch fluorescence ratio was 1.01. AGATACGGG showed a switch fluorescence ratio of 1.06. Work on AGATACGTAG yielded a switch fluorescence ratio of 1.04. Sequence AGATACGTCT has a switch fluorescence ratio of 1.01. AGATATCGAG was tested, and the switch fluorescence ratio was 0.98. For AGATATTCGA, the switch fluorescence ratio was 1.04. Sequence AGATATTTCA has a switch fluorescence ratio of 0.955. For AGATCGACAG, the switch fluorescence ratio was 1.04. Sequence AGATCGACTT has a switch fluorescence ratio of 1.03. AGATCGGGAA was tested, and the switch fluorescence ratio was 0.973. Work on AGATCTGAAC yielded a switch fluorescence ratio of 0.974. AGATCTGCAG gave a switch fluorescence ratio of 0.971. In the case of AGATCTGTGT, the switch fluorescence ratio is reported as 0.971. AGATCTGTTT gave a switch fluorescence ratio of 0.976. AGATCTTTTG showed a switch fluorescence ratio of 1.05. AGATGAGGAT showed a switch fluorescence ratio of 0.99. In the case of AGATGGAATG, the switch fluorescence ratio is reported as 0.988. With AGATGGAC the switch fluorescence ratio was 1.02. Work on AGATGTATGG yielded a switch fluorescence ratio of 0.984. AGATGTCGGG was tested, and the switch fluorescence ratio was 1. AGATTAAACC showed a switch fluorescence ratio of 1.05. AGATTAGTGT showed a switch fluorescence ratio of 0.951. Work on AGATTATTAG yielded a switch fluorescence ratio of 1. AGATTCGAGT was tested, and the switch fluorescence ratio was 0.954. Work on AGATTCGTAT yielded a switch fluorescence ratio of 1. For AGATTGAACA, the switch fluorescence ratio was 0.992. With AGATTTAGGT the switch fluorescence ratio was 0.974. For AGCAAAAATC, the switch fluorescence ratio was 1.03. In the case of AGCAAACTGG, the switch fluorescence ratio is reported as 1.14. Sequence AGCAAAGGAC has a switch fluorescence ratio of 1.28. In the case of AGCAAATCTC, the switch fluorescence ratio is reported as 2.92. In the case of AGCAAATTTA, the switch fluorescence ratio is reported as 1.08. Sequence AGCAATAGGG has a switch fluorescence ratio of 2.93. With AGCACGAGTA the switch fluorescence ratio was 1. Sequence AGCACGGTAG has a switch fluorescence ratio of 0.973.
